Experimental findings from publication PMC9911399, “Two distinct binding modes provide the RNA-binding protein RbFox with extraordinary sequence specificity” are described below.

Where a chain is given by its changes, count along the chain named. Some of the results follow.

The labels stand for the following.
T1: RBFOX1 RRM RbFoxmut (Fox-RRM*) (Homo sapiens, UniProt Q9NWB1 109-208, R118D;E147R;N151S;E152T)
T1 sequence: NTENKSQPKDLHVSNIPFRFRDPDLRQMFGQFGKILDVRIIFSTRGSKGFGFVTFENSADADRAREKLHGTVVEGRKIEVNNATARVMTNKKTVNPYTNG

B1: GUGGUGA (DNA:RNA)
RNA: GGGAGACCGGAAUUCAGAUUGUCCGUGGUGAUUAAAUCCCGUCGUAGCCACCA
DNA 1: CAATCTGAATTCCGGTCTCCC
DNA 2: TGGTGGCTACGACGGGATT
B2: CUGCACG (DNA:RNA)
RNA: B1 RNA with G25C, G28C, U29A, G30C, A31G
DNA 1: CAATCTGAATTCCGGTCTCCC
DNA 2: TGGTGGCTACGACGGGATT
B3: AGCACGC (DNA:RNA)
RNA: B1 RNA with G25A, U26G, G27C, G28A, U29C, A31C
DNA 1: CAATCTGAATTCCGGTCTCCC
DNA 2: TGGTGGCTACGACGGGATT
B4: UGUUACU (DNA:RNA)
RNA: GGGAGACCGGAAUUCAGAUUGUCCUGUUACUUUAAAUCCCGUCGUAGCCACCA
DNA 1: CAATCTGAATTCCGGTCTCCC
DNA 2: TGGTGGCTACGACGGGATT
B5: GGCGGGC (DNA:RNA)
RNA: B1 RNA with U26G, G27C, U29G, A31C
DNA 1: CAATCTGAATTCCGGTCTCCC
DNA 2: TGGTGGCTACGACGGGATT
B6: UCACUUC (DNA:RNA)
RNA: B1 RNA with G25U, U26C, G27A, G28C, G30U, A31C
DNA 1: CAATCTGAATTCCGGTCTCCC
DNA 2: TGGTGGCTACGACGGGATT
B7: CCUGACA (DNA:RNA)
RNA: B4 RNA with U25C, G26C, U28G, U31A
DNA 1: CAATCTGAATTCCGGTCTCCC
DNA 2: TGGTGGCTACGACGGGATT
B8: GUCUCAU (DNA:RNA)
RNA: B1 RNA with G27C, G28U, U29C, G30A, A31U
DNA 1: CAATCTGAATTCCGGTCTCCC
DNA 2: TGGTGGCTACGACGGGATT
B9: UUCGGAA (DNA:RNA)
RNA: B1 RNA with G25U, G27C, U29G, G30A
DNA 1: CAATCTGAATTCCGGTCTCCC
DNA 2: TGGTGGCTACGACGGGATT
B10: GUUCGAA (DNA:RNA)
RNA: B1 RNA with G27U, G28C, U29G, G30A
DNA 1: CAATCTGAATTCCGGTCTCCC
DNA 2: TGGTGGCTACGACGGGATT
B11: CCGCACU (DNA:RNA)
RNA: B4 RNA with U25C, G26C, U27G, U28C
DNA 1: CAATCTGAATTCCGGTCTCCC
DNA 2: TGGTGGCTACGACGGGATT
B12: CAUCCUC (DNA:RNA)
RNA: B4 RNA with U25C, G26A, U28C, A29C, C30U, U31C
DNA 1: CAATCTGAATTCCGGTCTCCC
DNA 2: TGGTGGCTACGACGGGATT
B13: UACCAGC (DNA:RNA)
RNA: B4 RNA with G26A, U27C, U28C, C30G, U31C
DNA 1: CAATCTGAATTCCGGTCTCCC
DNA 2: TGGTGGCTACGACGGGATT
B14: ACAUAUA (DNA:RNA)
RNA: B4 RNA with U25A, G26C, U27A, C30U, U31A
DNA 1: CAATCTGAATTCCGGTCTCCC
DNA 2: TGGTGGCTACGACGGGATT
B15: GAUGCCG (DNA:RNA)
RNA: B1 RNA with U26A, G27U, U29C, G30C, A31G
DNA 1: CAATCTGAATTCCGGTCTCCC
DNA 2: TGGTGGCTACGACGGGATT
B16: ACCGCGC (DNA:RNA)
RNA: B1 RNA with G25A, U26C, G27C, U29C, A31C
DNA 1: CAATCTGAATTCCGGTCTCCC
DNA 2: TGGTGGCTACGACGGGATT
B17: GCCGAAC (DNA:RNA)
RNA: B1 RNA with U26C, G27C, U29A, G30A, A31C
DNA 1: CAATCTGAATTCCGGTCTCCC
DNA 2: TGGTGGCTACGACGGGATT
B18: ACCCUAG (DNA:RNA)
RNA: B1 RNA with G25A, U26C, G27C, G28C, G30A, A31G
DNA 1: CAATCTGAATTCCGGTCTCCC
DNA 2: TGGTGGCTACGACGGGATT
B19: CUGCGCG (DNA:RNA)
RNA: B1 RNA with G25C, G28C, U29G, G30C, A31G
DNA 1: CAATCTGAATTCCGGTCTCCC
DNA 2: TGGTGGCTACGACGGGATT
B20: UCUUCUG (DNA:RNA)
RNA: B4 RNA with G26C, A29C, C30U, U31G
DNA 1: CAATCTGAATTCCGGTCTCCC
DNA 2: TGGTGGCTACGACGGGATT

The target in the experiment is T1, RBFOX1 RRM RbFoxmut (Fox-RRM*). The experiment is described as follows: EMSA; HiTS-Eq, 1 nM pool, 10 min; buffer printed only for the single-RNA assays: 10 mM Tris pH 7.5, 150 mM NaCl, 3.4 mM EDTA, 0.001% NP-40, 30 C. As to conditions: tags: His6 N-terminal (pET28a); label: 5' 32P. In a few lines:
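Relative association constants, normalised to the cognate motif, were derived by comparing read counts of each RNA species with those of the control reaction. The RNA sequenced was the free fraction, separated by 8% native PAGE after a 10 min equilibration in 50 µL of 1 nM 5′-radiolabelled RNA (7 randomized nucleotides) with increasing concentrations of purified wild-type or mutant RbFox RRM.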
Regarding B1, the binding signal was 0.129 KA relative to UGCAUGU.

With B2, the binding signal was 0.626 KA relative to UGCAUGU.

Turning to B3, the binding signal was 0.11 KA relative to UGCAUGU.

On to B4, for which the binding signal is 0.119 KA relative to UGCAUGU.

With B5, the binding signal is 0.0949 KA relative to UGCAUGU.

As to B6, the binding signal was 0.0526 KA relative to UGCAUGU.

For the molecule B7, the binding signal was 0.0551 KA relative to UGCAUGU.

Take B8: the binding signal is 0.141 KA relative to UGCAUGU.

Consider B9, for which the binding signal is 0.0883 KA relative to UGCAUGU.

On to B10, for which the binding signal is 0.129 KA relative to UGCAUGU.

As for B11, the binding signal was 0.0955 KA relative to UGCAUGU.

For the molecule B12, the binding signal was 0.114 KA relative to UGCAUGU.

As for B13, the binding signal is 0.0761 KA relative to UGCAUGU.

On to B14, for which the binding signal is 0.15 KA relative to UGCAUGU.

As for B15, the binding signal is 0.0721 KA relative to UGCAUGU.

For the molecule B16, the binding signal is 0.108 KA relative to UGCAUGU.

Consider B17, for which the binding signal is 0.0734 KA relative to UGCAUGU.

B18: the binding signal was 0.121 KA relative to UGCAUGU.

Consider B19, for which the binding signal is 0.186 KA relative to UGCAUGU.

With B20, the binding signal was 0.0672 KA relative to UGCAUGU.
